Values marked as one replicate rest on one cluster of the flow cell; about a third of the high ones do not repeat.
Test system: ATP
Experiment: switch fluorescence ratio, 500 uM ATP over buffer (Cy3 cluster intensity, sum of 5 cycles each) (fold (ratio)); higher = stronger signal-on switching upon ATP binding; sequences stand for … in TCGTCGGCAGCGTCAGATGTGTATAAGAGACAGTTTTTTTTTTTTTTTTTTTTTTTTT…TC
Conditions: aptamer strand: ATP DNA aptamer (quencher-CACCTGGGGGAGTATTGCGGAGGAAGG + anchor), 100 nM annealed; ATP concentration: 500 uM; one replicate
Procedure, shortened: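 Cy3-labelled switching-strand clusters on a modified Illumina MiSeq flow-cell were annealed to 100 nM quencher-labelled ATP aptamer, imaged in selection buffer, then imaged after 15 min with 500 uM ATP at 22 °C. Five buffer/ATP cycles ran, with NaOH stripping and re-annealing between them. The fluorescence ratio is summed target-cycle over summed buffer-cycle Cy3 intensity per cluster, averaged per switch-domain sequence. Clusters outside 100-1000 RFU were excluded.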
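Further: ATP exposure 15 min at 22 °C before imaging.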

Sequence	switch fluorescence ratio
GATGCGGTAT	0.969
ACAGAGGTAG	1.01
GAACCGGGG	1.05
GACCAGTACA	1.04
CTAATCTCAT	0.997
GCCCGGTAGC	1.06
TAATTATCAG	0.964
CCCTGTAGTG	1.26
ACGCCGGTTC	1.08
GGTGTGTACC	0.99
GTGCTAGGCT	0.986
TCCCGGGACC	1.02
GCCCTATCTA	1.02
CTCTCTGTTC	1.06
CGTGTAAGCG	1.02
GGTGAAATAG	0.999
TCATTGTCTA	1.02
CTGTTAAGG	0.987
AAGACCACAG	1.17
CCCGTCGTCG	0.999
TCGTTTGTTC	1.04
CTTCCGTGGT	1.75
GCTTTCTCGC	1.42
GGGAAGGGAC	1
CTCGGTGTTT	0.987
TGGGTCTGCT	1.01

Sequence	switch fluorescence ratio
ACTTTTCTAG	1.04
TGTGACAG	1
CTGGTTCAGC	1.01
CTGCTTTCG	1
TTCAGCTCCC	1.12
AATAAGTAT	0.981
GAGGGTCGCG	0.976
GGAGCCGTTC	1.06
TTAGCTTGTT	0.961
CTTGAGTTGT	1.01
TCGATGAGTT	0.941
GTGAATGCAA	1.16
GTGAGGGCG	0.995
CGAATCTGG	0.956
AAAACTCCTT	1
TGAAGCCGTG	1.15
CGGGATGCA	1.06
ATGGTCGACC	1
CAGGTACCCG	1.01
GTGATTATCC	1.02
GCTCGATATC	1.12
AACCGTTTGA	1.02
TTACCGGTGG	0.898
TTGTTGCCGA	1.02
CGTTTTCTTT	1.01
TAGATGCACC	1.06

Sequence	switch fluorescence ratio
AGGGATTTG	1
ACAGCTGAGA	1.09
TCTGGGCAGT	1.04
GTGCGGGGAG	1.03
GCTTGTAGGT	0.984
AACATAGGCC	0.988
GTCATCAAAT	1.03
AAACAAAGA	0.956
TACTTTAAGC	1.09
ACCCTGTGTT	1.02
CGGTCTTCGG	1.02
TTATATGTCT	1.02
TAACTAAGCC	0.979
CTTATATCAA	0.98
TGTGTGCAAA	0.982
CACCTTTAGT	1.02
AGGAACCTCT	1.02
TCCCAGGGGA	3.11
ATATCACTGG	0.98
ATTGCTACG	1.04
TGTCGGTACG	0.988
CATGGAGCCA	1.01
TAAAGACA	0.974
GGTCGCACTT	0.994
GGACTAAAGG	1.04
CAGGAAGGTT	0.948

Sequence	switch fluorescence ratio
AAGTCCTAAG	0.99
TGATGTGGGT	0.98
AAAAAGTAGA	1.05
GGATGGATGC	0.986
CCTTGATCAG	1.02
ATATACGTGG	0.982
TAGAATTTAA	1
AAGCTGTCTT	1.02
TTTGCACGAG	0.992
ACGCTGCGTT	1.04
GAGGGCAATA	4.48
GCCTCAGAGT	1.02
CATGTAACGT	1.08
GCAAAACTAT	1.01
TGGAGTCGGT	1.03
GGGTTGAACT	0.987
ATCGACACAA	1.88
CGTCGAATGT	0.995
GAAGTCAGTC	1.04
GGGCTTGACA	1.03
ATGGTGTCCA	1.02
GCAGAGCAGG	1.16
GGAAGGAGAC	0.964
TGCTTATTGA	1.02
TACCTCGACA	1.15
TGGAGGAACG	0.989

Sequence	switch fluorescence ratio
TTTATCCTAA	0.98
CAATGTCGGC	0.962
ATTGTATTTC	1.01
TTTAGATGCG	1.02
CGCCGGGTAC	2.51
ATGTTTTGAC	0.983
GGGCCAGCGT	0.94
ACCCGCCCGA	1.36
GGTTTAGAAT	0.967
AATGCTAGTA	1.01
GCTCTATCCA	0.97
CTCTGCACAC	1.31
TCGTCGAGGG	1
CGATCTTTGG	1.04
TAAATGTCGT	1.02
CCAGGGGGC	1.06
GGTTGTGGTC	0.989
TGACATCTC	1
TCGCACAAAT	1.12
CCACGGGTGG	1.02
TTTCGGGATA	1.05
TCAACTTGAC	1.12
GGGTTAG	1.02
GGTTTCATA	1.01
ATCTCAGCTG	0.989
ATAGTCGGGT	1.05

Sequence	switch fluorescence ratio
ATGACTAATT	0.997
ACGAAGCCTG	1.1
CAGCGGAGTG	0.951
CACTTGGGGG	0.983
ACACTTAGC	1.06
AATGCTGTAC	1.48
AAAAGACAAG	1.03
TATCGACGCT	1.35
ACTTAAAAGA	1.04
GCCCCCGTTG	1.33
TGTCGGGGGC	0.99
AGTTGTGGAC	1.01
TTGCTCTGCG	1.1
TGGTTGGTAA	0.974
CAAAAACAAT	1.01
AATTTTCACT	1.01
GCAGATGCAA	0.984
GACCTGTTGA	0.983
CGAGAAAGGA	0.98
TTGAGCAGCA	0.976
TGACTAACCT	2.07
CGCGGATGTT	0.996
GGCCACTTAT	1.02
GTTGTAGGT	0.982
CGAGGGCCGT	1.03
ATGGTATTGT	0.987

Sequence	switch fluorescence ratio
ACCCCGTCCC	1.11
TAAGTGAATA	0.995
CTCAGACTG	1.1
GAGGGATGTG	0.973
TGCCAATTGT	1.05
ATAACACTAA	0.977
TACATGAGAG	0.986
AGCTAGATAG	1.04
CCTAACCGCG	2.23
GCAAAATTTG	0.999
TCATGCTGTG	1.02
CCTCGACTAA	1.81
TGGGCGCCAC	1.02
GGTTAAATCA	0.971
CGCTACTTTC	1.29
GGTATAAATC	0.969
CCAACGATGA	1.2
TCTGAGGCCT	0.982
TAAATCGCCA	1.04
CCCCGTCAAA	6.27
GCCATTGAA	1.01
GGAGTATTTC	1.01
ATGAAAGGGC	1
GAGTATACAC	0.927
CTGTGCCAGG	1.17
GCCGCGTTCC	1.21

Sequence	switch fluorescence ratio
AGGGCGGTAG	0.945
GCGTCAAAG	1.01
CATTCATTGG	0.994
TGGTTTGATG	0.984
CCGTTGCGGT	1.17
GCTGGCGCCA	1.03
GGCCCTTCT	1.22
GAAAGGTGCA	0.995
TCTCGGAAAC	1.29
CTGGTTAGTG	0.991
GACTGGACTC	1.15
CTGAAGAGGT	0.959
CATCGTGGGC	0.999
TAGAGTCACC	1.02
AAGTACATAA	1.34
TCGTTCGTCA	0.997
CTAAAGCCGG	0.974
ACCTCGTAAC	1.07
TGTGGGTTCA	1.02
